# The list shows a part of the results. The main result of the screen is listed elsewhere. These columns were measured beside it and carry no call.
# Tests used:
# Assay in all cases: Primary Screen for Target Class Profiling of Small Molecule Inhibitors of Methyltransferases
# [1] = target: Glycine N-methyltransferase (Homo sapiens) (UniProt Q14749); details: purified enzyme, MTase-Glo SAH luminescence; measured here: GNMT inhibition; at 40 µM; stronger effect = lower value
# Procedure, shortened: (§1)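 Each enzyme was reacted with SAM and its substrate, with compounds tested once at 40 uM; SAH formed was read by MTase-Glo luminescence.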
# [2] = target: Guanidinoacetate N-methyltransferase (Homo sapiens) (UniProt Q14353); details: purified enzyme, MTase-Glo SAH luminescence; measured here: GAMT inhibition; at 40 µM; stronger effect = lower value
# Procedure, shortened: as §1
# [3] = target: Histamine N-methyltransferase (Homo sapiens) (UniProt P50135); details: purified enzyme, MTase-Glo SAH luminescence; measured here: HNMT inhibition; at 40 µM; stronger effect = lower value
# Procedure, shortened: as §1
# [4] = target: Nicotinamide N-methyltransferase (Homo sapiens) (UniProt P40261); details: purified enzyme, MTase-Glo SAH luminescence; measured here: NNMT inhibition; at 40 µM; stronger effect = lower value
# Procedure, shortened: as §1
# [5] = target: Phenylethanolamine N-methyltransferase (Homo sapiens) (UniProt P11086); details: purified enzyme, MTase-Glo SAH luminescence; measured here: PNMT inhibition; at 40 µM; stronger effect = lower value
# Procedure, shortened: as §1
# On the % scale 0 is the no-effect control and ±100 the full control effect.
SMILES,"activity change, negative = inhibition [1] [%]","activity change, negative = inhibition [2] [%]","activity change, negative = inhibition [3] [%]","activity change, negative = inhibition [4] [%]","activity change, negative = inhibition [5] [%]"
C=C1C(=O)O[C@@H]2/C=C(\C)CC/C=C(\C(=O)O[C@@H]3O[C@H](CO)[C@@H](O)[C@H](O)[C@H]3O)CC[C@@H]12,-4.34,-14.5,2.24,-17.8,-8.83
COc1ccc(CCN2Cc3cc(NC(=O)Cc4cccs4)ccc3OCC2=O)cc1,-9.09,-3.31,-5.59,-3.25,-7.84
Cc1ccc(CNC(=O)C2(C)Cn3cnc(C(=O)Nc4ccccc4C)c3C(=O)N2C2CC2)cc1 (stereo not given),-3.89,-1.6,1.17,-7.79,-1.66
COc1ccc(CN2C(=O)c3ccc(-c4ccccc4)n3CC2(C)C(=O)NC2CCCCC2)cc1 (stereo not given),4.36,0,7.66,2.12,5.55
Cc1cc(CNC(=O)[C@@H]2CCC[C@@H](NC(=O)C3CCOCC3)CN(C)C(=O)C2)no1,-4.54,-6.99,-1.27,-7.41,-7.2
CCCCNC(=O)CCc1nnc2n(Cc3ccccc3Cl)c(=O)c3ccccc3n12,-5.98,1.58,3.25,0.447,-3.17
COC(=O)[C@H]1CCCN1C(=O)[C@@H]1C[C@H](NC(=O)Nc2ccc(F)cc2F)CN1C(=O)CSC,-2.67,-1.06,0.303,1.44,-2.3
O=c1c2nc(Nc3ccc(C(F)(F)F)cc3)ccc2ncn1Cc1ccccn1,-20.4,-12.7,-16.1,-20.7,-1.71
O=C1Nc2ccccc2C12CN([S+](=O)([O-])c1ccccc1)C2,-10,-9.7,-6.12,-12.2,-13.6
CCCn1c(=O)c2ccc(C(=O)NC3CCCC3)cc2n2c(SCC(=O)NC(C)C)nnc12,12.6,0,13.3,14,12.6
COc1ccc(CCNC(=O)c2nnn3cc(C)[nH]c(=O)c23)cc1OC,-13.5,0.419,5.48,6.72,6.75
Cc1ccc(NC(=O)Cn2nc3n(CCc4ccccc4)c(=O)c4ccccc4n3c2=O)c(C)c1,4.95,0.769,6.49,7.68,4.05
COCCCN1C(=O)c2nc3ccccc3n2CC1(C)C(=O)NC1CCCCC1 (stereo not given),5.54,7.75,8.38,7.12,0.24
Cn1cc(-c2c[nH]c3ncnc(N4CCOCC4)c23)cn1,-8.62,-6.99,-10.7,-34.7,-16
Cc1ccc(CNC(=O)CCn2ccc3cc(S(=O)(=O)N4CCCCC4)ccc32)o1,-0.113,4.25,-2.9,0.507,-2.57
CN(Cc1cnn(C)c1)C(=O)c1csc2nc(-c3cccc(C(F)(F)F)c3)cn12,-6.37,-5.51,-2.81,-4.86,1.03
O=C1N(c2ccccc2)c2ccccc2C1(Cc1ccncc1)Cc1ccncc1,2.04,9.91,10.1,-15.3,-1.46
COc1ccc(C[C@H](NC(=O)[C@@H]2C[C@H](NC(=O)Nc3ccc(F)cc3F)CN2C(=O)CC(C)(C)C)C(N)=O)cc1,-0.396,0.347,-0.561,-3.95,-4.7
CCCn1c(=O)c2ccc(C(=O)NC(C)C)cc2n2c(SCC(=O)Nc3ccccc3F)nnc12,-0.64,2.46,2.54,-5.55,-1.57

SMILES,"activity change, negative = inhibition [1] [%]","activity change, negative = inhibition [2] [%]","activity change, negative = inhibition [3] [%]","activity change, negative = inhibition [4] [%]","activity change, negative = inhibition [5] [%]"
COC(=O)C[C@H]1[C@]2(C)C3=C(C)[C@H](c4ccoc4)C[C@H]3O[C@@H]2[C@H](O)C2[C@](C)(C(=O)OC)C=CC(=O)[C@@]21C (stereo not given in full),0,0.172,1.56,-12.1,3.36
CCC(=O)NCC1Cn2cccc2C(=O)N1Cc1ccccc1 (stereo not given),0.618,4.19,3.39,2.95,1.98
Cc1cc2c(cc3n2CC(C)(C(=O)NC2CCCCC2)N(Cc2cccs2)C3=O)o1 (stereo not given),-9.38,5.65,-7.72,-23.1,-4.93
CCCn1c(=O)c2[nH]c(-c3ccc(S(=O)(=O)O)cc3)nc2n(CCC)c1=O,-17.3,5.54,-0.168,-6.23,6.19
O=C(CCc1nnc2n(Cc3ccccc3)c(=O)c3ccccc3n12)N1CCN(c2ccccc2F)CC1,-3.31,3.53,2.91,-6.32,-2.21
Cc1ccc2n1CCN(C(=O)Nc1ccc3c(c1)OCCO3)C2C(C)C (stereo not given),-2.89,3.46,-6.08,-9.03,-5.69
Cc1cc(-n2c(=O)[nH]c(=O)n(C)c2=O)ccc1Oc1ccc(SC(F)(F)F)cc1,-0.895,-0.684,11.3,-29.6,-10.7
COc1ccccc1N1CCCc2ncc(C(=O)N3CCN(C(C)=O)CC3)cc21,-14.5,-8.34,-5.43,-9.86,-14.3
COc1ccccc1N1CCN([C@@H]2[C@H](O)[C@H](CO)O[C@@H]2CN(Cc2ccc(F)cc2)Cc2ccc(F)cc2)CC1,-5.78,-2.08,-1.54,-8.05,0.691
CN(Cc1ccc(F)cc1)C(=O)c1cccc(Cl)c1,-6.82,-11.5,-2.88,-21.9,-11.3
COc1ccccc1C(C)N(C)C(=O)c1cccc(CCC(C)(C)O)c1 (stereo not given),-1.42,-1.6,-0.104,-6.58,0.51
CN1C[C@@H]2CC[C@H](CC1=O)N2C(=O)c1cnn2cc(CCO)cnc12,-3.54,-6.96,-2.82,-6.01,-9.3
CCCSCCCN1C(=O)c2cc(-c3ccc(OC)cc3)nn2CC1(C)C(=O)NCc1ccccc1 (stereo not given),-1.57,0,-0.554,1.79,-2.93
O=C(NCCN1CCCC1)c1c(OCC2CC2)cc(=O)n2c1CCOCC2,-5.8,-9.96,-4.92,-15.2,-10.3
Cc1cc(NS(=O)(=O)c2ccc3c(c2)n(C)c(=O)n3C)ccc1Br,4.2,0,5.29,-8.59,1.53
CCc1nc(-c2ccc(OC3CCN(S(=O)(=O)Cc4ccccc4)C3)cc2)no1 (stereo not given),-4.78,-4.25,-3.19,-10.5,-6.54
O=C(CCCc1nnc2n3nc(-c4ccccc4)nc3c3ccccc3n12)NCc1ccc(F)cc1,-5.88,4.49,-1.05,3.76,-7.56
Cn1ccnc1CN1C(=O)CO[C@H]2CN(C3CCCCC3)C[C@H]21,-0.142,-0.841,0.453,0.817,1.53
C=C1CC2C3(C)C(O)CC(=O)C(C)(C)C3C(OC(C)=O)C(OC(C)=O)C2(C)C2C(=O)OC(C)(C(=O)OC)C(=O)C12C (stereo not given),3.88,5.18,7.38,-8.76,3.83

# — PubChem BioAssay AID1745853 (National Center for Advancing Translational Sciences (NCATS), 2022)
